# From PubChem BioAssay AID686979 (National Center for Advancing Translational Sciences (NCATS), 2013)
# “And” between values parts separate entries of the source, which are not always exact repeats. Identical values can stand only once. Screen size: about 420,000 compounds; about 50,000 (12%) were called active. Inconclusive results, whose numbers are uncertain, are shown with a selection of clear calls. Calls follow the shape of the dose curve; as a rule, active = well fitted inhibition curve with a large enough effect; inconclusive = small, poorly fitted or top-dose-only effect; inactive = flat fitted curve, though single readings scatter. A potency beside an inconclusive call is a rough fit, not a confirmed value.
# Assay: qHTS for Inhibitors of human tyrosyl-DNA phosphodiesterase 1 (TDP1): qHTS in cells in presence of CPT; also: nearly all actives have a fitted effect of over 55% in size
# Details: chicken DT40 Tdp1-/-;hTDP1 cells + 20 nM CPT, ATP luminescence, 48 h; activity change, negative = growth inhibition: at 46.2 µM (top of the series) unless noted
# How it was run: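 Chicken DT40 Tdp1-/- cells stably complemented with human TDP1 were seeded at 400 cells/well in medium containing 20 nM camptothecin, exposed to pin-transferred compounds, and grown at 37 °C for at least 48 hr. Viability was read as ATP luminescence.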
# % is scaled to controls: 0 for no effect and ±100 for the full control effect; potency is read from the fitted curve at half-maximal effect; tags tell the direction and shape of the fitted curve.
SMILES,Potency,"activity change, negative = growth inhibition"
O=C(COc1ccccc1)NC(=S)N1CCc2ccccc21,"inconclusive: 20.6 µM [inhibitor, single point]",
O=C/C(=C\Nc1ccc(Cl)cn1)c1nc2cc(Cl)ccc2o1,"inconclusive: 29.1 µM [inhibitor, single point]",
CCCSc1ncc(Cl)c(C(=O)Nc2ccc(S(=O)(=O)N3CCC(C)CC3)cc2)n1,"inconclusive: 25.9 µM [inhibitor, single point]",
COc1ccc(CNc2nc(-c3ccc(OC)cc3)cc(C(F)(F)F)n2)cc1,active: 13 µM,
COc1ccc(NC(=O)Cn2c(=O)cc(C)c3c(C)nn(C)c32)cc1,"inconclusive: 7.31 µM [inhibitor, partial curve]",
COc1cc(/C=C2/SC(=O)NC2=O)ccc1OC(=O)c1ccco1,active: 16.4 µM,
Cc1cccc(C(C)C)c1NC(=O)C1CCN(S(=O)(=O)c2ccccc2)CC1,,inactive: -21.9%
COc1ccc2c(c1)CC(C(=O)NCCN1CCN(c3ccccc3F)CC1)CO2 (configuration not stated),"inconclusive: 29.1 µM [inhibitor, single point]",
O=C(CN1CCN(c2ccccc2F)CC1)c1c[nH]c2ccc(F)cc12,"inconclusive: 18.4 µM [inhibitor, single point]",
CCCCn1c(SCC(=O)c2ccc3c(c2)OCCO3)nnc1-c1ccoc1C,"inconclusive: 29.1 µM [inhibitor, single point]",
C[C@@H]1CN([C@H](C)CO)C(=O)CCCn2cc(nn2)CO[C@H]1CN(C)S(=O)(=O)c1cccs1,,inactive: -7.64%
CCCC(=O)N1CCc2cc(OC)c(OC)cc2C1COc1ccc2c(C)cc(=O)oc2c1 (configuration not stated),"inconclusive: 25.9 µM [inhibitor, single point]",
CC(C)CN1CCNC(=O)C1CC(=O)NCCc1cnn(-c2ccccc2)c1 (configuration not stated),,inactive: -13.5%
COC(=O)C[C@H]1c2cc(F)ccc2S(=O)(=O)N1c1ccc(N(C)C)cc1,"inconclusive: 35.5 µM [inhibitor, single point] and inconclusive: 18.4 µM [inhibitor, single point]",
CSc1ccc(CN2CCN(Cc3ccc([N+](=O)[O-])cc3)CC2)cc1,"inconclusive: 29.1 µM [inhibitor, single point]",
COC(=O)C(C)Sc1nc2c(c(=O)n(C)c(=O)n2C)n1Cc1cccc(C)c1 (configuration not stated),,inactive: -18.2%
CCN(CC)Cc1c(-c2ccccc2)[nH]c2ccc(C)cc2c1=O,,inconclusive: -32.4% [inhibitor]
OCC1CCCN(c2nc3cc4c(cc3cc2CNCc2cccc(C(F)(F)F)c2)OCO4)C1 (configuration not stated),,inactive: -3.86% [at 9.04 µM]
CC(Sc1nnnn1C1CCCC1)C(=O)Nc1cccc(S(=O)(=O)N2CCOCC2)c1 (configuration not stated),"inconclusive: 29.1 µM [inhibitor, single point]",
Cc1ccc(NC(=O)C2CCN(C(=O)c3ccccc3C)CC2)nc1,,inactive: -0.646%
Cc1noc(C)c1COc1ccc(C(=O)NCCc2ccc(F)cc2)cc1,"inconclusive: 16.4 µM [inhibitor, single point]",

SMILES,Potency,"activity change, negative = growth inhibition"
C=CCc1ccccc1OCC(O)Cn1ccnc1C (configuration not stated),"inconclusive: 18.4 µM [inhibitor, single point]",
O=[N+]([O-])c1ccc(CP(=O)(c2ccccc2)c2ccccc2)cc1,"inconclusive: 29.1 µM [inhibitor, single point]",
Cn1nnnc1SCCCNCc1cccc(OCc2ccccc2F)c1,"inconclusive: 20.6 µM [inhibitor, single point]",
O=C(Cn1cc(SCc2ccc(Br)cc2)c2ccccc21)N1CCCCC1,"inconclusive: 25.9 µM [inhibitor, single point]",
O=C(Nc1ccccc1Cl)c1cc(C2CCCCN2C(=O)CCCc2ccccc2)on1 (configuration not stated),active: 29.1 µM,
COc1ccc(C(CNC(=O)c2cc3ccccc3cc2OC)N2CCCC2)cc1 (configuration not stated),"inconclusive: 18.4 µM [inhibitor, partial curve]",
CC1(C(=O)NCC2CCCO2)Oc2cccnc2NC1=O (configuration not stated),,inactive: 11.5%
Cc1ccc(Oc2cc(NC(=O)CCCn3nc(C)c([N+](=O)[O-])c3C)cc([N+](=O)[O-])c2)cc1,active: 16.4 µM,
Cc1ccc(Nc2nc(N)nc(CN3CCCCCC3)n2)cc1,"inconclusive: 16.4 µM [inhibitor, single point]",
COc1ccc(CCN2C(=O)NC(NC(=O)c3ccccc3OC)(C(F)(F)F)C2=O)cc1OC (configuration not stated),"inconclusive: 18.4 µM [inhibitor, partial curve]",
CSCCC1NC(=O)N(CC(=O)Nc2cccc(S(=O)(=O)N3CCCCCC3)c2)C1=O (configuration not stated),"inconclusive: 23.1 µM [inhibitor, single point]",
C=CCN1C(=O)CSC1=Nc1ccc(O)cc1,"inconclusive: 29.1 µM [inhibitor, single point]",
CCN(C(=O)CSc1nc2ccccc2n1Cc1ccc(C(=O)OC)cc1)c1ccccc1,active: 20.6 µM,
CC1CCCC(NC(=O)COC(=O)c2cccc(NS(=O)(=O)/C=C/c3ccccc3)c2)C1C (configuration not stated),"inconclusive: 29.1 µM [inhibitor, single point]",
O=C(NCCCCc1ccccc1)C12CN(Cc3ccccc3)CC1C(c1ccc([N+](=O)[O-])cc1)=NO2 (configuration not stated),"inconclusive: 8.2 µM [inhibitor, partial curve]",
CC(Sc1ccsc1[N+](=O)[O-])C(=O)NCCc1ccc(Cl)cc1 (configuration not stated),"inconclusive: 16.4 µM [inhibitor, single point]",
COC(=O)/C=C/c1cnc[nH]1,,inconclusive: -30.5% [inhibitor]
COC(=O)[C@]12CCCCC=C1N(Cc1ccccc1)C(=O)[C@H](CC(=O)N1CCCCC1)C2,"inconclusive: 29.1 µM [inhibitor, single point]",
CC(C)NC(=O)c1ccc2c3n(nc2c1)-c1ccccc1CO3,"inconclusive: 18.4 µM [inhibitor, single point]",
CCOc1cc(NC(=O)C2CCCCC2)c(OCC)cc1NC(=O)c1ccco1,active: 7.31 µM,
CCc1nc2ccc(C(=O)NCc3ccc(N(C)C)cc3)cc2nc1CC,"inconclusive: 14.6 µM [inhibitor, single point]",
